# PubChem BioAssay AID1347073 (National Center for Advancing Translational Sciences (NCATS), 2019)
# Out of some 45,000 compounds screened, about 200 (0.44%) were called active. Another 7% or so got no clear call; they are omitted. The call rests on the fitted dose curve; in most records, active means well fitted activation curve with a large enough effect; inconclusive means small, poorly fitted or top-dose-only effect; inactive means no such curve, though single readings can be large or run the other way. The list shows a part of the results.
# Test: qHTS of TDP-43 Inhibitors: NCGC Sytravon Library Screen; further: nearly all actives have a fitted effect of over 55% in size; on growth rescue (activation): 0% is about no effect
# Conditions: yeast TDP-43 toxicity rescue, BacTiter-Glo growth, 24 h; series mostly up to 46.1 µM; growth rescue (activation): at the top concentration
# Summary of the method: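 TDP-43-expressing yeast, pregrown in raffinose, seeded at OD600 0.02 in galactose medium with compound for 24 hr at 30 deg C. Growth read by BacTiter-Glo luminescence, so rescue of toxicity appears as activation.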
# Potency means the concentration at half of the fitted maximal effect.
Structure (SMILES),growth rescue (activation),Potency
COc1ccc(C2OCC3(CO2)SC(=O)NC3=O)cc1 (configuration not stated),inactive: -4.73%,–
O=C(COc1ccccc1F)OCC(=O)c1ccc([N+](=O)[O-])cc1,inactive: 8.6%,–
c1ccc(-c2cnnc(SCc3cn4cccnc4n3)n2)cc1,inactive: 18.7%,–
CN(NS(C)(=O)=O)c1ncc(C(F)(F)F)cc1Cl,inactive: -4.23%,–
O=C1NC(=S)N/C1=C\c1ccccc1OCc1ccc(C(=O)O)cc1,inactive: -10.1%,–
COc1ccc(N2CCN(C(=O)CN3C(=O)COc4ccccc43)CC2)cc1,inactive: 19.1%,–
CCC(Sc1nc2ccccc2[nH]1)C(=O)Nc1ccc(NC(C)=O)cc1 (configuration not stated),inactive: 10.9%,–
C=CCc1ccc(OCCCCN2CC(C)CC(C)C2)c(OC)c1 (configuration not stated),inactive: -5.27%,–
CCOc1ccccc1Nc1nc2ccccc2n1C(C)C,inactive: 1.78%,–
COc1ccccc1NC(=O)CSc1nc(N)c(-c2ccccc2)c(=O)[nH]1,inactive: -1.39%,–
O=C(N/N=C/c1ccccc1)c1cc(-c2ccc3c(c2)OCO3)n[nH]1,inactive: 11.3%,–
COc1cc(C(c2c(C)[nH][nH]c2=O)c2c(C)[nH][nH]c2=O)cc(OC)c1OC,inactive: -3%,–
Cc1c(NS(=O)(=O)c2ccc3nc(COc4ccccc4Cl)[nH]c3c2)c(=O)n(-c2ccccc2)n1C,inactive: 11.2%,–
O=C(COC(=O)c1cc(Br)ccc1O)NC12CC3CC(CC(C3)C1)C2,inactive: -6.31%,–
O=C(O)CC(SCC(=O)Nc1ccccc1)C(=O)O (configuration not stated),inactive: -25.9%,–
CN(CCC#N)C(=O)COC(=O)c1c2c(nc3ccccc13)/C(=C\c1ccco1)CC2,inactive: 26.4%,–
CC(=O)c1c(C)[nH]c(C(=O)CSc2ncnc3sc(-c4ccccc4)cc23)c1C,inactive: 13.7%,–
COCCN=c1scc(-c2cc(OC)ccc2OC)n1/N=C/c1c[nH]c2ccccc12,–,active: 20 µM
CCNC(=O)N(C)c1nncnc1C(=O)NC,inactive: -6.99%,–
OC(c1ccccc1)c1ncc(-c2ccccc2F)[nH]1 (configuration not stated),inactive: 10%,–
Cc1ccc2c(c1)/C(=N/N1C(=O)c3ccccc3C1=O)C(=O)N2,inactive: 12%,–
Cc1ccc(C(=O)COC(=O)CCCC(=O)Nc2cc(C(F)(F)F)ccc2Cl)cc1C,inactive: 15.4%,–
Cc1csc(=Nc2ccc(S(=O)(=O)N3CCOCC3)cc2)n1Cc1ccco1,inactive: 8.71%,–

Structure (SMILES),growth rescue (activation),Potency
COc1ccc(S(=O)(=O)N2CCN(C)CC2)cc1C(=O)N1CCCCC1,inactive: 0.858%,–
O=c1cc(CSc2nnc(NC3CCCCC3)s2)nc2sccn12,inactive: 10.9%,–
COc1ccc(Cl)cc1NC(=O)c1[nH]c(C)c(C(C)=O)c1C,inactive: -6.58%,–
COC1=CCC2([N+](=O)[O-])CN(CCO)CC1([N+](=O)[O-])C2 (configuration not stated),inactive: -1.53%,–
CCOc1cccc(C(=O)Nc2ccc(N3CCCC3)cc2)c1,inactive: 13.7%,–
Cc1ccc(C2CCN(C(=S)NC(C)C)C2)cc1 (configuration not stated),inactive: 23%,–
COc1ccc(C2=NN(C(=O)COc3ncnc4ccccc34)C(c3ccco3)C2)cc1 (configuration not stated),inactive: 4.3%,–
COc1cc(NC(=S)N2CCN(C(=O)c3ccco3)CC2)c(OC)cc1Cl,inactive: -5.75%,–
COc1cccc(-c2nc(-c3cccs3)no2)c1,inactive: -0.886%,–
O=C(COC(=O)Cc1c(F)cccc1Cl)Nc1ccc2[nH]c(=O)[nH]c2c1,inactive: -13.7%,–
CNc1nc(N/N=C/c2cc3c(cc2[N+](=O)[O-])OCO3)nc(Nc2ccccc2)n1,inactive: 24.2%,–
Cc1sc2ncnc(SCC(=O)Nc3ccc(S(=O)(=O)N4CCOCC4)cc3)c2c1C,inactive: -11.5%,–
COc1cccc(/C=N/NC(=O)CNC(=O)c2ccc3c(c2)OCCO3)c1O,inactive: 7.05%,–
Cc1ccc(NCc2cccn2-c2nnc(N3CCC(C(=O)NCc4ccccc4C)CC3)s2)cc1,inactive: 0.524%,–
COc1ccc([N+](=O)[O-])cc1-n1cccc1,inactive: -13%,–
Cc1nn(-c2ccccc2)cc1/C=N/NS(=O)(=O)c1ccccc1,inactive: 17.4%,–
CC1(c2ccccc2Cl)NC(=O)N(CC(=O)N2CCc3ccccc32)C1=O (configuration not stated),inactive: -15.5%,–
Cc1cc(NC(=O)C2CC(=O)N(c3cccc(C)c3C)C2)no1 (configuration not stated),inactive: 16%,–
O=C(Cc1c(Cl)cccc1Cl)OCc1ccccn1,inactive: -27%,–
CN(C(=O)CSc1nc2ccc(NC(=O)COc3ccc(F)cc3)cc2s1)c1ccccc1,inactive: 35%,–
Cc1cccc(N(CC(=O)NC2CCCC2)C(=O)CNC(=O)c2ccco2)c1C,inactive: 6.29%,–
C#CCSc1nc(N)c2c(n1)OC(N)=C(C#N)C2c1cccnc1 (configuration not stated),inactive: 6.29%,–
CCc1[nH]nc(C(=O)N2CCCC(N3CCN(c4ccccc4C)CC3)C2)c1C (configuration not stated),inactive: 1.99%,–

Structure (SMILES),growth rescue (activation),Potency
NS(=O)(=O)c1ccc(CNC(=O)c2ccc(S(=O)(=O)C(F)F)cc2)cc1,inactive: 27.6%,–
COc1ccc(NC(=O)C2CC(=O)N/C(=N/NC(=O)c3ccc(Cl)cc3)S2)cc1 (configuration not stated),inactive: 14.1%,–
CCN(Cc1ccccc1)c1ccc(/C=N/NS(=O)(=O)c2ccc(C)c([N+](=O)[O-])c2)cc1,inactive: -9.87%,–
COc1cc(-c2cc(C(=O)Nc3ccc(S(N)(=O)=O)cc3)c3ccccc3n2)cc(OC)c1OC,inactive: -5.08%,–
CN1CCC(=NNC(=O)c2cc(-c3ccc(Cl)cc3)n[nH]2)CC1,inactive: 0.174%,–
Cc1ccc(C(=O)NC2CCCCCC2)cc1S(=O)(=O)N1CCOCC1,inactive: -13.6%,–
COc1ccc(-n2nc(C(=O)NCC(=O)NCc3ccccc3OC)c3ccccc3c2=O)cc1,inactive: 8.99%,–
CCN(CC(=O)Nc1c(F)cccc1F)C(=O)CCc1c[nH]c2ccccc12,inactive: 13.4%,–
COc1ccc(OCC(=O)O/N=C(\N)c2ccc(OC)cc2)cc1,inactive: 24%,–
CCOC(=O)c1c(NC(=S)NC)sc2c1CC(C)(C)SC2,inactive: 23.6%,–
CCOc1cc(/C=C2/SC(=S)NC2=O)ccc1OC(=O)c1ccco1,inactive: -6.66%,–
CC1(C(=O)NC2CCCCCC2)CCN1C(=O)Cc1ccc(-c2ccccc2)cc1 (configuration not stated),inactive: 19.1%,–
CC(/C=N\NC(=O)CN1CCN(S(=O)(=O)c2ccc(C)cc2)CC1)=C\c1ccccc1,inactive: 13.8%,–
CC(C)CC(=O)N1CCN(Cc2ccc(Br)cc2)CC1,inactive: 2.26%,–
COc1ccccc1/C=C(/C(=O)OCC(=O)N(C)Cc1ccccc1)c1ccccc1,inactive: -17.7%,–
NC(=S)NN=C1C2CC3CC(C2)CC1C3,inactive: 11%,–
COc1ccc2[nH]c3c(=O)n(N)c(C)nc3c2c1,inactive: 18.5%,–
O=S(=O)(Nc1ccc(S(=O)(=O)Nc2ncccn2)cc1)c1ccc(Cl)cc1,inactive: 6.54%,–
C/C(=N/N1CCN(c2ccccc2)CC1)c1cccc([N+](=O)[O-])c1,inactive: 23.4%,–
COc1ccc(/C=N/NC(=O)c2cccnc2)c2ccccc12,inactive: 18.3%,–
NC(=O)CC[C@H](NC(=O)c1ccc(Cl)cc1)C(=O)NNC(=O)COc1cccc(Br)c1,inactive: 11.9%,–
